{"source": "the supplement of paper PMC10126150", "note": "Sequences with one replicate were seen in a single cluster, so their values are uncertain.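 Also: ATP exposure 15 min at 22 °C before imaging.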"}
{"system": "ATP", "assay": "switch fluorescence ratio, 500 uM ATP over buffer (Cy3 cluster intensity, sum of 5 cycles each) (fold (ratio)); higher = stronger signal-on switching upon ATP binding; sequences stand for … in TCGTCGGCAGCGTCAGATGTGTATAAGAGACAGTTTTTTTTTTTTTTTTTTTTTTTTT…TC", "conditions": "aptamer strand: ATP DNA aptamer (quencher-CACCTGGGGGAGTATTGCGGAGGAAGG + anchor), 100 nM annealed; ATP concentration: 500 uM; one replicate", "how_it_was_run": "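After annealing to 100 nM quencher-labelled ATP aptamer, Cy3-labelled switching-strand clusters on a modified Illumina MiSeq flow-cell were imaged in selection buffer. A second image followed after 15 min with 500 uM ATP at 22 °C, and five such buffer/ATP cycles were done, each separated by NaOH stripping and re-annealing. The fluorescence ratio, averaged per switch-domain sequence, is summed target-cycle over summed buffer-cycle Cy3 intensity per cluster, with clusters outside 100-1000 RFU excluded.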"}
{"sequence": "ACAACGGGGA", "switch fluorescence ratio": 0.993}
{"sequence": "ACAAGACGTT", "switch fluorescence ratio": 1.04}
{"sequence": "ACAAGACTAC", "switch fluorescence ratio": 1.16}
{"sequence": "ACAAGACTGA", "switch fluorescence ratio": 1.09}
{"sequence": "ACAAGCTAAG", "switch fluorescence ratio": 1}
{"sequence": "ACAAGGGTGT", "switch fluorescence ratio": 0.98}
{"sequence": "ACAAGGTCT", "switch fluorescence ratio": 0.987}
{"sequence": "ACAAGTAGCA", "switch fluorescence ratio": 1.01}
{"sequence": "ACAATAGGAG", "switch fluorescence ratio": 1.07}
{"sequence": "ACAATCACAC", "switch fluorescence ratio": 1.1}
{"sequence": "ACAATCATTA", "switch fluorescence ratio": 0.985}
{"sequence": "ACAATTACTA", "switch fluorescence ratio": 1.07}
{"sequence": "ACACACCCA", "switch fluorescence ratio": 1.38}
{"sequence": "ACACACCCTG", "switch fluorescence ratio": 1.51}
{"sequence": "ACACACTAAT", "switch fluorescence ratio": 1.23}
{"sequence": "ACACAGCTA", "switch fluorescence ratio": 1.25}
{"sequence": "ACACAGGACA", "switch fluorescence ratio": 1.17}
{"sequence": "ACACAGTTTT", "switch fluorescence ratio": 1.03}
{"sequence": "ACACATCGCG", "switch fluorescence ratio": 0.984}
{"sequence": "ACACATTGTA", "switch fluorescence ratio": 0.986}
{"sequence": "ACACATTTTA", "switch fluorescence ratio": 1.06}
{"sequence": "ACACCCACTA", "switch fluorescence ratio": 1.47}
{"sequence": "ACACGCGGAA", "switch fluorescence ratio": 1.06}
{"sequence": "ACACGGACCT", "switch fluorescence ratio": 1.55}
{"sequence": "ACACGGCGGT", "switch fluorescence ratio": 1.02}
{"sequence": "ACACGGGCCG", "switch fluorescence ratio": 1.02}
{"sequence": "ACACGTACGC", "switch fluorescence ratio": 1.66}
{"sequence": "ACACGTTCAT", "switch fluorescence ratio": 1.03}
{"sequence": "ACACTCGAAA", "switch fluorescence ratio": 1.03}
{"sequence": "ACACTGCAAT", "switch fluorescence ratio": 4.93}
{"sequence": "ACACTGTCTG", "switch fluorescence ratio": 1.01}
{"sequence": "ACACTGTTCT", "switch fluorescence ratio": 0.983}
{"sequence": "ACACTTGCGG", "switch fluorescence ratio": 1.02}
{"sequence": "ACAGACATA", "switch fluorescence ratio": 1.15}
{"sequence": "ACAGACCCAT", "switch fluorescence ratio": 1.08}
{"sequence": "ACAGACGC", "switch fluorescence ratio": 1.14}
{"sequence": "ACAGACGGAG", "switch fluorescence ratio": 0.967}
{"sequence": "ACAGATCATT", "switch fluorescence ratio": 1.03}
{"sequence": "ACAGATGCGA", "switch fluorescence ratio": 1.03}
{"sequence": "ACAGATTTCG", "switch fluorescence ratio": 1.03}
{"sequence": "ACAGCAGGCG", "switch fluorescence ratio": 1.03}
{"sequence": "ACAGCGACT", "switch fluorescence ratio": 1.1}
{"sequence": "ACAGCGATT", "switch fluorescence ratio": 1.06}
{"sequence": "ACAGCGATTA", "switch fluorescence ratio": 1.1}
{"sequence": "ACAGCGGGAG", "switch fluorescence ratio": 1.04}
{"sequence": "ACAGCGTCGA", "switch fluorescence ratio": 1.05}
{"sequence": "ACAGCTCTTC", "switch fluorescence ratio": 0.968}
{"sequence": "ACAGCTGGAC", "switch fluorescence ratio": 1.17}
{"sequence": "ACAGCTTAGG", "switch fluorescence ratio": 1.02}
{"sequence": "ACAGGAACCG", "switch fluorescence ratio": 1.02}
{"sequence": "ACAGGCCACA", "switch fluorescence ratio": 1.07}
{"sequence": "ACAGGGAAGG", "switch fluorescence ratio": 1.05}
{"sequence": "ACAGGGAGCG", "switch fluorescence ratio": 0.961}
{"sequence": "ACAGGGATGG", "switch fluorescence ratio": 0.985}
{"sequence": "ACAGGGTCGC", "switch fluorescence ratio": 1.01}
{"sequence": "ACAGTAAAAT", "switch fluorescence ratio": 0.974}
{"sequence": "ACAGTAAACG", "switch fluorescence ratio": 0.933}
{"sequence": "ACAGTAGCGG", "switch fluorescence ratio": 1.02}
{"sequence": "ACAGTAGGCA", "switch fluorescence ratio": 1.02}
{"sequence": "ACAGTCCCGT", "switch fluorescence ratio": 1.04}
{"sequence": "ACAGTCCTCG", "switch fluorescence ratio": 1.09}
{"sequence": "ACAGTGCATA", "switch fluorescence ratio": 1.06}
{"sequence": "ACAGTGCCCA", "switch fluorescence ratio": 1.04}
{"sequence": "ACAGTGCGTA", "switch fluorescence ratio": 1.07}
{"sequence": "ACAGTTGTAC", "switch fluorescence ratio": 1.06}
{"sequence": "ACATAACCCG", "switch fluorescence ratio": 1.06}
{"sequence": "ACATACTCAC", "switch fluorescence ratio": 1.37}
{"sequence": "ACATAGAATA", "switch fluorescence ratio": 1.02}
{"sequence": "ACATAGAGAC", "switch fluorescence ratio": 1.02}
{"sequence": "ACATAGATGC", "switch fluorescence ratio": 1.07}
{"sequence": "ACATAGCCGC", "switch fluorescence ratio": 1.01}
{"sequence": "ACATAGGTTC", "switch fluorescence ratio": 1.03}
{"sequence": "ACATATAGTT", "switch fluorescence ratio": 1.01}
{"sequence": "ACATATCATT", "switch fluorescence ratio": 1.02}
{"sequence": "ACATATCGTG", "switch fluorescence ratio": 0.956}
{"sequence": "ACATATCTCC", "switch fluorescence ratio": 1.12}
{"sequence": "ACATATTCCA", "switch fluorescence ratio": 1.04}
{"sequence": "ACATATTCGG", "switch fluorescence ratio": 1.02}
{"sequence": "ACATCAGAAA", "switch fluorescence ratio": 0.992}
{"sequence": "ACATCAGAG", "switch fluorescence ratio": 0.989}
{"sequence": "ACATCAGGAT", "switch fluorescence ratio": 0.998}
{"sequence": "ACATCCCGGT", "switch fluorescence ratio": 1.04}
{"sequence": "ACATCGCTAT", "switch fluorescence ratio": 1.41}
{"sequence": "ACATCGGCGC", "switch fluorescence ratio": 1.02}
{"sequence": "ACATCGGGTT", "switch fluorescence ratio": 1.02}
{"sequence": "ACATCTCGCA", "switch fluorescence ratio": 1.08}
{"sequence": "ACATCTTGTT", "switch fluorescence ratio": 1}
{"sequence": "ACATGATCCG", "switch fluorescence ratio": 1.13}
{"sequence": "ACATGGCCCC", "switch fluorescence ratio": 1.06}
{"sequence": "ACATGGGCTG", "switch fluorescence ratio": 1.07}
{"sequence": "ACATGGGTAC", "switch fluorescence ratio": 1.06}
{"sequence": "ACATGTCAAG", "switch fluorescence ratio": 0.936}
{"sequence": "ACATGTGTC", "switch fluorescence ratio": 1.05}
{"sequence": "ACATGTTTAA", "switch fluorescence ratio": 1.03}
{"sequence": "ACATTACATG", "switch fluorescence ratio": 1.11}
{"sequence": "ACATTGGTTG", "switch fluorescence ratio": 0.934}
{"sequence": "ACATTTATGA", "switch fluorescence ratio": 0.994}
{"sequence": "ACATTTCGAG", "switch fluorescence ratio": 1.01}
{"sequence": "ACCAAACGCC", "switch fluorescence ratio": 1.19}
{"sequence": "ACCAAACTGG", "switch fluorescence ratio": 1.03}
{"sequence": "ACCAAAGGAT", "switch fluorescence ratio": 1.14}
